# Laboratory results taken from PMC4336329 (PLoS ONE, 2015).
# About 2,200 (0.71%) of roughly 310,000 compounds showed an effect of 50% or more. Effects have a minus sign here. Some of the results follow.
# Biological target: human ether-à-go-go-related gene (hERG) potassium channel (human, UniProt Q12809)
# Assay: primary screen, population patch clamp on CHO cells stably expressing hERG
# Sequence of human ether-à-go-go-related gene (hERG) potassium channel (Q12809 whole entry, looked up): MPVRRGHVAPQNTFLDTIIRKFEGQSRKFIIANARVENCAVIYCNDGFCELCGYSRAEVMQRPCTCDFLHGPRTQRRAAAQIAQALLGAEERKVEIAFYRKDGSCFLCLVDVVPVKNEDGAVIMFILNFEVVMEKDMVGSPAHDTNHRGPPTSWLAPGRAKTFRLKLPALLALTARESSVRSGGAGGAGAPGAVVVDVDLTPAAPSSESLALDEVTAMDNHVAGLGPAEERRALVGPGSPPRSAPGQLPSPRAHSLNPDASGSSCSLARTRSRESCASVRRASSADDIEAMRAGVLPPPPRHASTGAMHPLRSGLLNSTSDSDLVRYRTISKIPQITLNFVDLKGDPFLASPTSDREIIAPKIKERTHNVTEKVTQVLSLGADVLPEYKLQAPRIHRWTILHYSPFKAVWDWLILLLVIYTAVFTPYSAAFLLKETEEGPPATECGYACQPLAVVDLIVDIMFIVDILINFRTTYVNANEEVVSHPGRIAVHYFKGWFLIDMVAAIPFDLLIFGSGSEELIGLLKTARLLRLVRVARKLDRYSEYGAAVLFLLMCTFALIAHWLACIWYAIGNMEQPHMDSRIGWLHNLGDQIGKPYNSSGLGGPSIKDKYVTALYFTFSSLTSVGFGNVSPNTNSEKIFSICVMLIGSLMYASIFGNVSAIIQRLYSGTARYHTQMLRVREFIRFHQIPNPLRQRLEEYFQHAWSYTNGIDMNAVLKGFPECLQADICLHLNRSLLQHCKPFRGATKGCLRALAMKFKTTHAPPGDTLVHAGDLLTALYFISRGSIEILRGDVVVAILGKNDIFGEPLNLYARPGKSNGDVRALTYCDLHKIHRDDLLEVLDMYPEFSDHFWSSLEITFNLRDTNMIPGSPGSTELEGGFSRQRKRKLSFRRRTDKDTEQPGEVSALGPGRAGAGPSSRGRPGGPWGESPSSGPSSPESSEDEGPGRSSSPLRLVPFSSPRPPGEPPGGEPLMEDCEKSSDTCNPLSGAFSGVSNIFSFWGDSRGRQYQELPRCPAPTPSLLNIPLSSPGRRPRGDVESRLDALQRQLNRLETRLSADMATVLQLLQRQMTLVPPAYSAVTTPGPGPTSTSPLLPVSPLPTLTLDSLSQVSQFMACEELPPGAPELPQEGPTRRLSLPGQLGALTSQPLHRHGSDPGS
row,SMILES,"hERG current change (%, negative = inhibition) at 1uM"
1,O=C1c2ccccc2C2(c3cc(C(F)(F)F)cc(C(F)(F)F)c3)NCCN12 (stereo not drawn),14.2%
2,CN1C(C(=O)NCCc2cccs2)CC2Cn3c(nc4cc(Cl)c(Cl)cc43)C21 (stereo not drawn),-11.5%
3,CCOc1ccc(S(=O)(=O)NCCCn2ccnc2)cc1NC(C)=O,5.15%
4,S=C(NCCN1CCOCC1)N/N=C/c1cccs1,9.94%
5,CC(=O)c1ccc(NC(=O)CSc2nnc(NC(=O)c3ccco3)s2)cc1,-10.7%
6,COC(=O)c1cc(NC(=O)c2cc(C(C)(C)C)nn2Cc2cccc(C)c2)ccc1N1CCOCC1,12.4%
7,O=C(NCCc1ccccc1)C1CCN(C(=O)c2ccc([N+](=O)[O-])cc2)CC1,-21.5%
8,O=C(CCC(=O)OCC(F)(F)C(F)F)Nc1ccc(Cl)cc1,-6.83%
9,CC(C)(C)C(=O)c1cn(CC(=O)O)c2ccccc12,10%
10,N/C(=N\OC(=O)Cc1ccc(-c2ccccc2)cc1)c1cccc([N+](=O)[O-])c1,14.6%
11,COc1ccc(C(CNC(=O)c2oc3ccc(F)cc3c2C)N2CCCCC2)cc1 (stereo not drawn),2.33%
12,CC(C)C(C(=O)C=[N+]=[N-])N1C(=O)c2ccccc2C1=O (stereo not drawn),11.2%
13,CCC12CN(C(=O)c3ccc([N+](=O)[O-])cc3)CC(CC)(CN(C(=O)c3ccc([N+](=O)[O-])cc3)C1)C2=O,13.5%
14,CNC(=O)CSc1nc2cccnc2n1-c1ccc(F)cc1,10.4%
15,OCCNc1nc(OCC(F)(F)F)nc(N2CCN(C34CC5CC(CC(C5)C3)C4)CC2)n1,-13.2%
16,O=C(NCCS(=O)(=O)NCC1CCCO1)c1ccccc1 (stereo not drawn),12.7%
17,CCOc1ccc(NC(=O)CSc2ccc3nnc(-c4ccccn4)n3n2)cc1,-11.7%
18,O=C(Cc1ccccc1)NS(=O)(=O)c1ccc(N=NN2CCOCC2)cc1,17.5%
19,CS(=O)(=O)c1cnc(-c2ccccc2)nc1Oc1ccc(F)cc1,7.69%
20,Cc1cccc(C)c1NC(=O)CNC(=O)CCC(=O)N1CCOCC1,15.3%
21,CC(=O)c1ccc(-n2c(-c3cc(-c4ccco4)[nH]n3)n[nH]c2=S)cc1,8.3%
22,O=C(COC(=O)c1ccco1)c1ccc(Cl)cc1,18.3%
23,CC(Sc1nc(-c2ccccc2)cc(C(F)(F)F)n1)C(=O)N1CCCC1 (stereo not drawn),12.9%
24,O=c1c(Cc2ccc(F)cc2)c(O)ccn1CCCN1CCOCC1,19%
